# Assay results reported in the supplement of paper PMC3334620.
# The full ranking holds about 33,000 sequences; the median of “E-score (-0.5 to 0.5)” is about -0.032, and the highest 2% start at about 0.36. The list shows a part of the results.
# Target: T1, Sko1 (UniProt Q02100)
# T1 sequence: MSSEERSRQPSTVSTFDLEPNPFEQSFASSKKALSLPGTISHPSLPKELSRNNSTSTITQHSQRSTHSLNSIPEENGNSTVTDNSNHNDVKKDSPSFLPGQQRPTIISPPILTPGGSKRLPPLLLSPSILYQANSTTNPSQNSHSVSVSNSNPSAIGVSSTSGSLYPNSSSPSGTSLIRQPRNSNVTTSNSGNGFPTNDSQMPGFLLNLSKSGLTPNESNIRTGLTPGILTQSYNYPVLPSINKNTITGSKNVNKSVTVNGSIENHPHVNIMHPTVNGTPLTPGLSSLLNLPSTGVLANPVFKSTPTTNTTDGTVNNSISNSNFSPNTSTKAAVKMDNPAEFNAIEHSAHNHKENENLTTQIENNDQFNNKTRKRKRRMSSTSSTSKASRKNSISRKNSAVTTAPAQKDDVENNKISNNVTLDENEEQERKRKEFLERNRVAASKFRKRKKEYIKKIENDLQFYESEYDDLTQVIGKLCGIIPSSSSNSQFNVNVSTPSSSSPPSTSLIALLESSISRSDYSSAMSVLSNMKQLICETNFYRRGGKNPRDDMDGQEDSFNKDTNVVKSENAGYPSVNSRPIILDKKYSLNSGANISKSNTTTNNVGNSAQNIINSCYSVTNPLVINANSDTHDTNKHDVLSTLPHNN
# Experiment: PBM E-score (8-mer binding enrichment) (E-score (-0.5 to 0.5)); higher = stronger / more preferred TF binding; most listed sequences are background and not binding sites
# Details: protein concentration: 200 nM; construct: GST-full length
# How it was run: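 Using PURExpress in vitro transcription/translation, GST-tagged yeast transcription factors were made in full-length or DNA-binding-domain form. These were applied at about 100-200 nM to double-stranded universal all-10-mer Agilent arrays, and bound protein was detected with fluorescent anti-GST. Scans were normalised with masliner before the Universal PBM Analysis Suite assigned E-scores to ungapped eight-base words pooled with their reverse complements.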
row,Sequence,PBM E-score
1,CACTAGAC,-0.0756
2,ATAGTGCA,0.0776
3,ACTGCTAA,-0.215
4,CCAACCGA,0.00601
5,AGGCCCCA,-0.232
6,GATGCAGA,-0.0834
7,CCTGAACG,-0.143
8,CTAACGAG,0.0316
9,ACACACAA,0.252
10,CCGGTTCG,-0.215
11,AGCTGAGG,-0.232
12,CGAGGACC,-0.0757
13,CGAGCGCC,-0.234
14,ACCCCTAA,-0.197
15,ACAAACGT,0.343
16,ACAAAGGT,0.0392
17,GTTAAAAC,0.0641
18,TTCTAAAA,0.103
19,CGCGTTAC,0.129
20,GACCTAGA,0.0106
21,CATAACGG,-0.0211
22,CGTCCTAA,0.0445
23,TACTCTGA,-0.0588
24,ATAATGCC,-0.0441
25,CATTTCCC,0.0531

row,Sequence,PBM E-score
1,GCGTGCAC,0.0342
2,ATGTTGGA,0.0266
3,ATGTCTAC,0.0729
4,AAAAAACT,0.0679
5,GATACATC,0.186
6,GGTTTTCA,0.00133
7,GCTTTCCA,0.00399
8,AGGGGAAC,-0.316
9,ACTTTAGC,0.012
10,AAGATGCC,-0.245
11,CTCCAAAG,-0.0795
12,AGGTATGG,-0.309
13,CCTACTCG,-0.156
14,CATAAACC,0.0461
15,AGGCCGAG,-0.2
16,TGGCTGAA,-0.124
17,ATGTCGGG,-0.0544
18,CAGATCGA,-0.0859
19,AACAACTG,0.00424
20,GGAAATGA,0.206
21,GATAAGGA,0.0604
22,AACACTAA,0.106
23,CGCTAGCA,-0.0892
24,AATCACGT,0.429
25,GCACGAAC,0.162

row,Sequence,PBM E-score
1,AGAGCACG,0.0917
2,CCATCTAA,0.0462
3,GGAATCAC,0.0672
4,AAATTAAG,0.0464
5,AGTTATTA,0.221
6,CTATAACC,-0.0181
7,CCATGCGG,0.0364
8,CTTCCTGC,-0.256
9,CAGTGCTA,-0.151
10,GTCATGCA,0.336
11,CCCCCACG,-0.105
12,ACATCGGA,-0.0443
13,AGCCTGTG,-0.19
14,CACTGCCG,-0.16
15,GACTTTAA,-0.0659
16,ATCTCTAC,0.106
17,AGACAGGG,-0.29
18,ACAACTTA,0.0802
19,ACCTTGTG,-0.0718
20,ATAACAAA,0.244
21,GTCCGTTA,0.0181
22,CGAATAGC,0.0587
23,AAAATACA,0.11
24,GAAGGGCA,-0.17
25,CAGTCACC,-0.157

row,Sequence,PBM E-score
1,ACGGGTCT,-0.249
2,AGGATTTC,-0.174
3,AAGTAGCA,0.038
4,CCTGTCAG,-0.285
5,ACTGCGCC,-0.24
6,ATGGAACC,-0.204
7,AAAATCAT,0.174
8,ATGTCCTG,-0.139
9,AATGGAGT,-0.0467
10,ACCTAGCT,-0.271
11,AGGTCTTC,-0.263
12,GATCTTTA,0.177
13,ATTGGATG,0.0724
14,GACCACCA,-0.158
15,AATTTCTA,0.242
16,GTGCCCCA,-0.178
17,AAACCCGG,-0.194
18,TCAGACAA,0.0129
19,GGGCGATA,-0.259
20,CAGATAAA,0.0135
21,CGGTCTGA,-0.167
22,AATATCGG,0.0658
23,GTTGCCAA,-0.134
24,AATCGCAG,-0.0724
25,AGAAATGC,-0.0706

row,Sequence,PBM E-score
1,ACTATTAA,0.115
2,ATTCTGGA,0.204
3,CGAGGAAC,-0.145
4,ATTAGTCA,0.156
5,AAGCAGCA,-0.239
6,GGCCATTA,0.0502
7,ACGCGATA,0.25
8,CAGTTGGC,-0.159
9,CACATACG,0.276
10,CGTGTACC,0.13
11,AGGCTAAA,-0.0916
12,CACCGTTA,-0.00767
13,AAGGATCC,-0.254
14,AATGATTA,0.312
15,CGTCTCGA,0.157
16,GGCGACAC,-0.252
17,GTCTATGA,0.238
18,CCGGCAAG,-0.205
19,AAATATTG,0.28
20,AGTTCATC,0.048
21,GGCGGGTA,-0.0963
22,AAGGATGT,-0.096
23,CAAAACAA,-0.0728
24,GACATTCC,-0.0417
25,AGGCGCTA,-0.0165

row,Sequence,PBM E-score
1,CCGCCCAC,-0.19
2,ACGCACAG,0.254
3,CTTGCACC,-0.112
4,CACTCATG,-0.00775
5,CGAGGATC,-0.0634
6,AAGGGCTA,-0.213
7,GGGTGACC,-0.15
8,CCTGGGAG,-0.294
9,AACGTTAC,0.321
10,AACTATAC,0.0559
11,GCGATGCA,-0.296
12,GAAGATCA,0.0236
13,ACCGACAT,0.115
14,GTCGCGAA,-0.0307
15,ACCAAACC,0.0081
16,CGAACAGA,-0.0377
17,GCCAGGTA,-0.115
18,CCAGGCTC,-0.153
19,AAGATCAC,0.0381
20,GAGAGCCA,-0.118
21,CCGGGTTC,-0.297
22,TATCCGAA,0.00827
23,CGCGCTTA,0.165
24,CATTTACA,0.103
25,CTAGTTTA,0.0553

row,Sequence,PBM E-score
1,AGGACGAG,-0.153
2,ACTCATAT,0.0856
3,AAAGTGGA,-0.0436
4,AATTGTGT,0.108
5,GAGAGGCC,-0.335
6,GGTTGATA,-0.0764
7,ACTTGACG,0.331
8,CTTTGCGA,-0.108
9,AAGGCCTA,-0.229
10,ACCCTCTG,-0.155
11,CGTGTTAG,0.295
12,GAAAGGTC,-0.139
13,GCATGTTA,0.0316
14,ACGACGTA,0.446
15,ATACGGTG,0.0664
16,AACTACCT,0.029
17,CCGGTAAC,0.0117
18,GCGCAACA,0.175
19,ATCAACAA,0.18
20,ACGATGCC,-0.159
21,CTAAAGCC,-0.113
22,ATAAGTTG,0.039
23,AGGAAGTG,-0.18
24,GTACGTGA,0.416
25,ATGAAATG,-0.059

row,Sequence,PBM E-score
1,GGCTGAAC,-0.178
2,GCGTCTTA,-0.0429
3,CCGACACC,-0.299
4,CCCATTTC,-0.321
5,GTGCGCTA,-0.0664
6,AAATAGCT,-0.0235
7,CTGTTCAA,-0.0354
8,CACGCTTC,-0.293
9,CTATCATA,0.0725
10,AAACGACT,0.012
11,TATTTTGA,0.145
12,GCCATTTA,0.0064
13,CAGCATCA,0.096
14,ATGGGAAT,-0.071
15,GCATGCCA,-0.187
16,CAAAGGCA,-0.109
17,TCGTCCAA,-0.0467
18,ACTATACT,-0.0265
19,TTCCCCAA,-0.108
20,CAAGTTAA,0.0734
21,CGGTACCC,-0.307
22,CCCAGCAG,-0.182
23,AACTGGCA,-0.0966
24,CCGCATGC,-0.284
25,AACTCAAT,0.124

row,Sequence,PBM E-score
1,GCGAATAC,0.111
2,AACAATGG,0.00677
3,TAGACAAA,0.107
4,AATGTTCG,0.0246
5,CCAGGCCA,-0.271
6,CCGTCCCC,-0.327
7,ATCTCTAG,-0.0619
8,ATACTTTA,0.107
9,CTGCATAC,-0.0108
10,AGAGCAGG,-0.126
11,TATCGAGA,0.0604
12,ACAAGACT,-0.122
13,CCCAGGGG,-0.245
14,GGTAGCCA,-0.238
15,GGTTGCGA,-0.0606
16,CGGGGTTA,-0.0864
17,AATGTTGC,0.159
18,ATAGCAAT,0.188
19,AAGTTGCG,0.18
